About 1,800 (2.5%) of roughly 71,000 compounds were called active. The shares of active, inactive and inconclusive entries below differ from those in the screen. The call rests on the fitted dose curve; in most records, active means well fitted activation curve with a large enough effect in the signal ratio, with a control signal flat (not every such curve was filed as active); inconclusive means small, poorly fitted or top-dose-only effect, or effect the other way, or a change in a side signal; inactive means flat fitted curve, though single readings scatter; the % refers to the signal ratio. Potencies of inconclusive entries are doubtful fits and often do not repeat.
Assay: Cell signaling CRE-BLA (Fsk stim); on activity change, negative = inhibition: % of control where 0% means no effect
Conditions: CHO CRE-bla reporter (cAMP response element driving beta-lactamase), forskolin EC10, beta-lactamase ratio; activity change, negative = inhibition: at 38.2 µM (top of the series) unless noted
In short: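 Cells were plated overnight at 37 °C, exposed to compound titrations plus EC10 NKH 477 for 3 h, then given CCF4 dye for 2 h at room temperature. Blue/green (460/530 nm) ratio was converted to %Activity and AC50 values calculated.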
In the case of `CCCCn1c(/N=C/c2cc(OC)ccc2O)nc2ccccc21`, the activity change, negative = inhibition is reported as “inactive”.
For `CN1C(=O)N(c2cccc3ccccc23)C(n2cncn2)C1(C)C` (centres undefined), the activity change, negative = inhibition was “inactive”.
With `C=CCn1c(SCC(=O)Nc2cc(NC(C)=O)ccc2OC)nnc1-c1ccccn1` the activity change, negative = inhibition was inconclusive: 25.7%.
For `COc1ccccc1Oc1c(C)oc2c(CN3CCN(C)CC3)c(O)ccc2c1=O`, the activity change, negative = inhibition was “inactive”.
For `Cc1noc(C)c1-c1ccc2ncnc(NCc3cccnc3)c2c1`, the Potency was inconclusive: 7.94 µM [rising, partial curve].
With `COc1ccc(NC(=O)C(C)NS(=O)(=O)c2ccc(NC(C)=O)cc2)cc1Cl` (centres undefined) the activity change, negative = inhibition was inconclusive: 1.39%.
For `O=C(O)c1ccc(CSCc2ccco2)cc1`, the activity change, negative = inhibition was “inactive”.
For `CC1CCCC(C)N1C(=O)Cn1c(SCC(=O)NCc2ccc3c(c2)OCO3)nc2ccccc21` (centres undefined), the activity change, negative = inhibition was inconclusive: -8.59%.
With `COc1ncnc2c1oc1nc(C(C)C)c3c(c12)CC(C)(C)OC3` the Potency was inconclusive: 1 µM [rising, partial curve].
For `O=c1c(-c2cc(F)cc(F)c2)nc2cncnc2n1Cc1ccccc1`, the activity change, negative = inhibition was inconclusive: 22.7%.
In the case of `CC(C)NC(=O)NC1C2CC3CC(C2)CC1C3` (centres undefined), the Potency is reported as inconclusive: 12.6 µM [rising, single point].
With `O=c1c2cc(N3CCOCC3)ccc2[nH]c(=S)n1CC1CCCO1` (centres undefined) the activity change, negative = inhibition was inconclusive: 14.8%.
With `COc1cc2c(C(=O)NCCCN3CCN(c4cccc(Cl)c4)CC3)cn(C)c(=O)c2cc1OC` the Potency was active: 3.98 µM.
In the case of `Cn1c(=O)c2c(nc(CN3CCN(c4ccccc4)CC3)n2Cc2ccccc2Cl)n(C)c1=O`, the activity change, negative = inhibition is reported as “inactive”.
In the case of `CCOC(=O)CSC1=C(C#N)C(c2ccccc2C)C2=C(CCCC2=O)N1` (centres undefined), the activity change, negative = inhibition is reported as inconclusive: 14.5%.
In the case of `O=C(CSc1ccc(-c2nc3ccccc3[nH]2)cn1)N1CCN(C(=O)c2ccco2)CC1`, the activity change, negative = inhibition is reported as “inactive”.
With `COc1ccc2nc(C)cc(Nc3ccc(N4CCOCC4)cc3)c2c1` the Potency was inconclusive: 12.6 µM [rising, partial curve].
With `COc1ccc2[nH]cc(CCNc3cc(-c4ccccc4OC)ncn3)c2c1` the activity change, negative = inhibition was “inactive”.
With `Cn1c(=O)cc(SCC(=O)NCc2ccco2)c2ccccc21` the Potency was inconclusive: 10 µM [rising, single point].
In the case of `COc1ccc(C2CC(=O)N3CN(Cc4ccco4)CSC3=C2C#N)cc1` (centres undefined), the activity change, negative = inhibition is reported as “inactive”.
With `C=CCNc1nc(-c2sc(NC(=O)CC)nc2C)cs1` the activity change, negative = inhibition was inconclusive: 2.07%.
For `C[C@H]1[C@H](C)OC(=O)C[C@H](O)C[C@H](O)C[C@H](O)CC[C@H](O)[C@H](O)CC(=O)C[C@H](O)[C@H](C(=O)O)[C@H](O)C[C@H](O[C@@H]2O[C@@H](C)[C@H](O)[C@@H](N)[C@@H]2O)C=CC=CC=CC=CCCC=CC=C[C@@](C)(O)[C@H]1O`, the activity change, negative = inhibition was inactive: 1.37% [at 7.6 µM].
For `Cc1cc(N2CCC(C)CC2)nc(-n2nc(C)cc2C)n1`, the Potency was inconclusive: 12.6 µM [rising, single point].
For `CC1=NCCN1S(=O)(=O)c1cc(Cl)ccc1Cl`, the activity change, negative = inhibition was inconclusive: 15.6%.
With `COc1cc(C(=O)Nc2cc(-c3ccccc3)[nH]n2)cc(OC)c1OC` the Potency was active: 0.794 µM.
For `COc1cc(-c2noc(C3CCCN(S(=O)(=O)c4cccc(Cl)c4)C3)n2)cc(OC)c1OC` (centres undefined), the activity change, negative = inhibition was inconclusive: 24.6%.
In the case of `c1ccc(-c2cnc(-c3cccnc3)o2)cc1`, the Potency is reported as inconclusive: 12.6 µM [rising, single point].
With `CCCCOC(=O)C1=C(C)Nc2ncnn2C1c1cc(OC)c(OC)cc1OC` (centres undefined) the Potency was active: 15.8 µM.
In the case of `CCc1ccc(C2C(C#N)=C(N)SC(N)=C2C#N)s1`, the activity change, negative = inhibition is reported as inconclusive: -17%.
In the case of `COC(=O)c1ccccc1S(=O)(=O)N(Cc1cc2cc3c(cc2[nH]c1=O)OCO3)C1CCCCC1`, the Potency is reported as inconclusive: 15.8 µM [rising, partial curve].
In the case of `NCCC[C@@H](CC(=O)N[C@@H]1CCNC[C@H]1C(=O)N[C@H](CC(=O)N[C@@H](CCC(=O)O)CC(=O)O)Cc1ccccc1)NC(=O)C[C@H](Cc1ccccc1)NC(=O)[C@@H]1CNCC[C@H]1N`, the activity change, negative = inhibition is reported as “inactive”.
With `Cn1cc(S(=O)(=O)Nc2ccc(F)cc2F)c(=O)n(C)c1=O` the activity change, negative = inhibition was inconclusive: 4.65%.
In the case of `CCOC(=O)C1CCCN(CCC(C)c2ccccc2)C1` (centres undefined), the activity change, negative = inhibition is reported as “inactive”.
With `O=C(COC(=O)C1CCCN1C(=O)c1cccs1)c1ccccc1` (centres undefined) the Potency was inconclusive: 0.1 µM [falling, single point].
In the case of `c1ccc([C@H](c2cccc3c2ccc2ccccc23)[C@H](c2ccccc2)c2cccc3c2ccc2ccccc23)cc1`, the activity change, negative = inhibition is reported as inactive: 19.1% [at 7.6 µM].
With `O=C(NCCOc1ccccc1)C1CCCN1C(=O)c1cccs1` (centres undefined) the Potency was inconclusive: 0.1 µM [falling, single point].
With `CCOc1ccc(CCNC(=O)CCN2C(=O)COc3ccccc32)cc1OCC` the activity change, negative = inhibition was inconclusive: 3.25%.
With `c1cc(-c2nc3cc(Oc4ccc5oc(-c6ccncc6)nc5c4)ccc3o2)ccn1` the activity change, negative = inhibition was inconclusive: 13.7%.
With `O=C(CSc1nnc(-c2cccnc2)n1-c1ccccc1)Nc1ccccn1` the Potency was inconclusive: 12.6 µM [rising, partial curve].
For `O=C(O)Cc1csc2ccccc12`, the Potency was inconclusive: 0.2 µM [rising, partial curve, poor fit].
For `COC(=O)c1cc2ccccc2c(=O)s1`, the Potency was inconclusive: 10 µM [rising, partial curve, poor fit].
In the case of `O=C1CCCN1CCC1CCN(C(=O)Nc2ccccc2)CC1`, the activity change, negative = inhibition is reported as inconclusive: 2.14%.
In the case of `COc1ccc(NC(=O)CN2CCN(CC(=O)Nc3ccccc3Cl)CC2)cc1Cl`, the activity change, negative = inhibition is reported as inconclusive: 17.4%.
With `Cc1cc(C(=O)CN2C(=O)NC(c3ccccc3)(c3ccccc3)C2=O)c(C)n1Cc1ccco1` the activity change, negative = inhibition was inconclusive: -7.87%.
With `COc1cccc(NC(=O)Cc2nnc(SCC(=O)c3ccccc3)n2C)c1` the activity change, negative = inhibition was inconclusive: -23.2%.
In the case of `O=C(CSc1ccc2nnc(-c3ccc(Cl)cc3)n2n1)N1CCCC1`, the activity change, negative = inhibition is reported as “inactive”.
For `Cc1occc1C(=O)NCc1cccs1`, the activity change, negative = inhibition was inconclusive: -7.54%.
For `COCCCNc1oc(-c2ccccc2OC)nc1C#N`, the Potency was inconclusive: 20 µM [rising, partial curve, poor fit].
With `CCOC(=O)Cn1c(=O)oc2cc(S(=O)(=O)NCCc3ccc(OCC)c(OCC)c3)ccc21` the activity change, negative = inhibition was inconclusive: 17.4%.

From PubChem BioAssay AID662 (National Center for Advancing Translational Sciences (NCATS), 2007)
Potency means the concentration at half of the fitted maximal effect; tags describe the fitted curve by direction and shape.
